# Results published in PubChem BioAssay AID1476 (National Center for Advancing Translational Sciences (NCATS), 2009).
# In all, about 200,000 compounds went through this assay and about 4,500 (2.2%) were called active. The shares of active, inactive and inconclusive entries below differ from those in the screen. Calls follow the shape of the dose curve; as a rule, active = well fitted inhibition curve with a large enough effect; inconclusive = small, poorly fitted or top-dose-only effect, or effect the other way; inactive = flat fitted curve, though single readings scatter. Potencies beside an inconclusive call are fits to weak or partial responses and may not hold up.
# Molecular target: Cruzipain (Trypanosoma cruzi) (UniProt P25779)
# Chain of UniProt P25779 (P25779 whole entry, looked up): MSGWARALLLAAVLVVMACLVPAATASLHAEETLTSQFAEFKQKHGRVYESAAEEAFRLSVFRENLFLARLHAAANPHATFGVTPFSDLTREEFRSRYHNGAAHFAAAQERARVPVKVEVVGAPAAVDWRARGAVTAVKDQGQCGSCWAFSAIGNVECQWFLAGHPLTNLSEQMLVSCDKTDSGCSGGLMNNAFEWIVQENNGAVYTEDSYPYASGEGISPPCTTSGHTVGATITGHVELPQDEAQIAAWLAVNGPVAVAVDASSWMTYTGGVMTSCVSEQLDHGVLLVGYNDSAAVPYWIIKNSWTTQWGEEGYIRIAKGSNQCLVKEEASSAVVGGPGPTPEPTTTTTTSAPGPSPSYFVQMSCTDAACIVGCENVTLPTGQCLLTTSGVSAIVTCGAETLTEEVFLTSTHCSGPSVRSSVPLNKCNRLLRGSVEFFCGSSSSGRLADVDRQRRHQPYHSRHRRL
# Assay: qHTS Assay for Promiscuous and Specific Inhibitors of Cruzain (without detergent); also: nearly all actives have a fitted effect of over 40% in size;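 as to max response, negative = inhibition: plate controls were enzyme without inhibitor for no effect and buffer without enzyme for full effect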
# Settings: purified cruzain, Z-FR-AMC fluorescence, no detergent
# How it was run: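 Purified cruzain at 1.5 nM, pre-incubated 15 min with compound at room temperature in 100 mM sodium acetate pH 5.5, 5 mM DTT, 0.00005% Triton X-100. Reaction started with 2 uM Z-FR-AMC; AMC fluorescence increase over 60 s gives rate.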
# Potency is read from the fitted curve at half-maximal effect; tags tell the direction and shape of the fitted curve.
SMILES,Potency,"max response, negative = inhibition"
COc1cc(NC(=O)c2cc(C3CC3)nc3c2c(C)nn3-c2ccccc2)cc(OC)c1,"inconclusive: 39.8 µM [inhibitor, single point]",–
CC1CCc2c(sc(NC(=O)Cn3nc(C(F)(F)F)c4c3CCCCC4)c2C#N)C1 (centres undefined),active: 20 µM,–
O=C(Nc1cccc(Cl)c1)Nc1nc(-c2ccc(Cl)cc2)cs1,active: 10 µM,–
N#Cc1nc(-c2ccco2)oc1N1CCOCC1,–,inactive: -10.1%
COc1ccc(NC(=O)Cn2c(=O)n(-c3cc(C)cc(C)c3)c(=O)c3oc4ccccc4c32)cc1OC,"inconclusive: 25.1 µM [activator, partial curve]",–
CCN(CC)S(=O)(=O)c1ccc(N2CCCCC2)c(NC(=O)/C(C#N)=C/c2ccc(OC)cc2)c1,active: 10 µM,–
Cc1ccc(Cn2cc(S(=O)(=O)c3ccc(Cl)cc3)c(=O)c3cc(F)ccc32)cc1,"inconclusive: 39.8 µM [inhibitor, single point]",–
COc1ccc(Br)cc1C1C(C(=O)Nc2ccc(C)cc2C)=C(C)Nc2ncnn21 (centres undefined),"inconclusive: 31.6 µM [activator, single point]",–
Cc1ccc(NC(=O)C2(c3cccs3)CCOCC2)cc1Cl,–,inactive: -0.0929%
CS(=O)(=O)N1CCc2cc(C(=O)N3CCN(c4cccc(Cl)c4)CC3)ccc21,"inconclusive: 39.8 µM [activator, single point]",–
Cc1ccc(NC(=O)COC(=O)/C=C/c2cccs2)cc1,–,inactive: -7.72%
COc1ccc(C2C(C(=O)Nc3ccccc3)=C(C)Nc3c(C(=O)Nc4ccccc4)cnn32)cc1 (centres undefined),–,inactive: -0.455%
COc1ccc(N2CCN(c3oc(Cc4cccc5ccccc45)nc3C#N)CC2)cc1,active: 15.8 µM,–
Cc1ccc(-n2nnnc2SCc2nc3sc(C)c(C)c3c(=O)[nH]2)cc1,"inconclusive: 20 µM [inhibitor, partial curve]",–
CCOC(=O)N1CCN(C(=O)c2nn(-c3ccc(C)cc3)c(=O)c3c2c2ccccc2n3C)CC1,"inconclusive: 15.8 µM [activator, partial curve]",–
Cc1ccc(C)c(CSc2nnc3[nH]c(=O)cc(C)n23)c1,–,inactive: 7.98%
CC(=O)N1CCCc2cc(S(=O)(=O)N3CCCC(C(=O)N4CCN(c5cccc(Cl)c5)CC4)C3)ccc21 (centres undefined),"inconclusive: 20 µM [activator, partial curve]",–
CCc1ccc(C(=O)c2cn(CC(=O)Nc3ccc(Cl)cc3)c3cc4c(cc3c2=O)OCO4)cc1,"inconclusive: 3.16 µM [inhibitor, full curve]",–
N/C(=N\OC(=O)c1cc(-c2ccccc2)nc2ccccc12)c1ccncc1,"inconclusive: 20 µM [activator, partial curve]",–
CC(C)C(=O)Nc1nnc2n1CCS2,–,inactive: 1.05%
CCC(Cn1nnc2ccccc2c1=O)NC(=O)Nc1cc(C)cc(C)c1 (centres undefined),–,inactive: -14.7%
CCc1ccc(C(=O)c2cn(CC(=O)Nc3ccc4c(c3)OCO4)c3ccc(CC)cc3c2=O)cc1,–,inactive: -6.73%

SMILES,Potency,"max response, negative = inhibition"
COc1ccc(-c2nn3c(-c4ccc(F)cc4)nnc3s2)cc1,"inconclusive: 25.1 µM [activator, single point]",–
O=C(O)COCCN1CCN([C@@H](c2ccccc2)c2ccc(Cl)cc2)CC1,–,inactive: 1.19%
COC(=O)c1ccccc1NC(=O)CN1C(=O)C2CCCN2c2ncc(Cl)cc21 (centres undefined),active: 10 µM,–
Cc1ccc(NC(=O)C(Cc2c[nH]c3ccccc23)NC(=O)OC(C)(C)C)c(C)c1 (centres undefined),–,inactive: -7.66%
COCCNC(=O)[C@H](C)/C=C(\c1cccnc1)C(NC(=O)OCc1ccccc1)c1ccc(C(=O)OC)cc1 (some centres undefined),"inconclusive: 31.6 µM [activator, single point]",–
CN(C)c1oc(-c2cccs2)nc1C#N,"inconclusive: 39.8 µM [inhibitor, single point]",–
COc1cc2[nH]cc(C(=O)NCCc3ccccc3)c(=O)c2cc1OC,"inconclusive: 39.8 µM [activator, single point]",–
Cc1n[nH]c(C)c1S(=O)(=O)N(CC(=O)Nc1ccc2c(c1)OCCO2)c1ccc(C(C)C)cc1,"inconclusive: 25.1 µM [activator, single point]",–
COc1ccc(NC(=O)Cn2cc(S(=O)(=O)N3CCN(c4ccccc4F)CC3)c3ccccc3c2=O)cc1Cl,active: 7.94 µM,–
Cc1cc(C(=O)NCC(=O)OCC(=O)Nc2ccc(OC(F)F)cc2)ccc1[N+](=O)[O-],active: 10 µM,–
CCN(CC)CCCNc1oc(/C=C/c2ccc(OC)c(OC)c2)nc1C#N,"inconclusive: 25.1 µM [inhibitor, single point]",–
CC1CCN(C(=S)c2cn(Cc3ccccc3F)c3ccccc23)CC1,"inconclusive: 39.8 µM [inhibitor, single point]",–
COc1cccc(-n2c(SCC(=O)N3c4ccccc4CC3C)nnc2-c2ccco2)c1 (centres undefined),"inconclusive: 39.8 µM [activator, single point]",–
COc1ccccc1OCCn1c(NC(=O)c2ccccc2Cl)nc2ccccc21,active: 20 µM,–
Cc1ccc(NC(=O)C(=O)NCC(c2cccnc2)N2CCN(Cc3ccccc3)CC2)cc1C (centres undefined),–,inactive: 8.46%
COC(=O)c1cc(OC)c(OC)cc1NC(=O)c1ccoc1C,"inconclusive: 1.58 µM [inhibitor, full curve, poor fit]",–
COc1ccccc1-c1nn2c(-c3ccco3)nnc2s1,"inconclusive: 25.1 µM [activator, single point]",–
Cc1cc(Nc2ccccc2F)n2nc(-c3ccccc3)nc2n1,–,inactive: 10.5%
CCOc1ccc(Nc2oc(-c3ccc(COc4ccc(OC)cc4)o3)nc2C#N)cc1,"inconclusive: 25.1 µM [inhibitor, single point]",–
Cc1ccc(S(=O)(=O)Nc2ccccc2C(=O)Nc2nc(-c3ccc(F)cc3)cs2)cc1,"inconclusive: 25.1 µM [inhibitor, single point]",–
CCCCCn1c(CCNC(=O)c2cccs2)nc2ccccc21,active: 12.6 µM,–
CCc1ccc(-n2c(=O)c3c4c(sc3n(Cc3ccccc3C#N)c2=O)CCCC4)cc1,–,inactive: 23.6%
